Assay results as given in the supplement of paper PMC8728848.
The other results are listed elsewhere or left out.

Columns and labels:
Experiment in all cases: glycan array binding signal (z-score within array); higher = stronger binding
Conditions in all cases: glycan notation: IUPAC condensed, linker removed
[1] = target: Fuc(a1-2)Gal(b1-4)GlcNAc(b1-3)Gal(b1-4)GlcNAc(b1-2)Man(a1-3)[Fuc(a1-2)Gal(b1-4)GlcNAc(b1-3)Gal(b1-4)GlcNAc(b1-2)Man(a1-6)]Man(b1-4)GlcNAc(b1-4)GlcNAc
How it was run: (§1)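 The Consortium for Functional Glycomics database supplied 3228 glycan arrays, of which those lacking an available protein sequence were dropped. The binding signal, a within-array Z-score, was averaged across arrays of the same protein sequence and across linkers. Negative scores can be read as non-binding.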

[2] = target: Fuc(a1-2)Gal(b1-4)GlcNAc(b1-3)Gal(b1-4)GlcNAc(b1-3)Gal(b1-4)GlcNAc
How it was run: as §1

[3] = target: Fuc(a1-2)Gal(b1-4)GlcNAc(b1-3)GalNAc
How it was run: as §1

[4] = target: Fuc(a1-2)Gal(b1-4)GlcNAc(b1-3)[Fuc(a1-2)Gal(b1-4)GlcNAc(b1-6)]GalNAc
How it was run: as §1

[5] = target: Fuc(a1-2)Gal(b1-4)GlcNAc(b1-3)[Fuc(a1-3)[Gal(b1-4)]GlcNAc(b1-6)]Gal(b1-4)Glc
How it was run: as §1

[6] = target: Fuc(a1-2)Gal(b1-4)GlcNAc(b1-6)GalNAc
How it was run: as §1

[7] = target: Fuc(a1-2)Gal(b1-4)GlcNAc6S
How it was run: as §1

[8] = target: Fuc(a1-2)Gal(b1-4)[Fuc(a1-3)]GlcNAc
How it was run: as §1

[9] = target: Fuc(a1-2)Gal(b1-4)[Fuc(a1-3)]GlcNAc(b1-2)Man(a1-3)[Fuc(a1-2)Gal(b1-4)[Fuc(a1-3)]GlcNAc(b1-2)Man(a1-6)]Man(b1-4)GlcNAc(b1-4)[Fuc(a1-6)]GlcNAc
How it was run: as §1

[10] = target: Fuc(a1-2)Gal(b1-4)[Fuc(a1-3)]GlcNAc(b1-2)[Fuc(a1-2)Gal(b1-4)[Fuc(a1-3)]GlcNAc(b1-4)]Man(a1-3)[Fuc(a1-2)Gal(b1-4)[Fuc(a1-3)]GlcNAc(b1-2)Man(a1-6)]Man(b1-4)GlcNAc(b1-4)GlcNAc
How it was run: as §1

[11] = target: Fuc(a1-2)Gal(b1-4)[Fuc(a1-3)]GlcNAc(b1-3)Gal(b1-4)[Fuc(a1-3)]GlcNAc
How it was run: as §1

[12] = target: Fuc(a1-2)Gal(b1-4)[Fuc(a1-3)]GlcNAc(b1-3)Gal(b1-4)[Fuc(a1-3)]GlcNAc(b1-3)Gal(b1-4)[Fuc(a1-3)]GlcNAc
How it was run: as §1

[13] = target: Fuc(a1-2)Gal(b1-4)[Fuc(a1-3)]GlcNAc(b1-3)GalNAc
How it was run: as §1

[14] = target: Fuc(a1-2)Gal(b1-4)[Fuc(a1-3)]GlcNAc(b1-3)[Neu5Ac(a2-6)Gal(b1-4)GlcNAc(b1-6)]Gal(b1-4)Glc
How it was run: as §1

[15] = target: Fuc(a1-2)Gal3S(b1-4)GlcNAc
How it was run: as §1

[16] = target: Fuc(a1-2)Gal6S(b1-3)GlcNAc
How it was run: as §1

[17] = target: Fuc(a1-2)Gal6S(b1-3)GlcNAc6S
How it was run: as §1

Fuc(a1-2)Gal6S(b1-4)Glc = target: Fuc(a1-2)Gal6S(b1-4)Glc
How it was run: as §1

[18] = target: Fuc(a1-2)Gal6S(b1-4)Glc6S
How it was run: as §1

Fuc(a1-2)[Gal(a1-3)]Gal = target: Fuc(a1-2)[Gal(a1-3)]Gal
How it was run: as §1

[19] = target: Fuc(a1-2)[Gal(a1-3)]Gal(b1-3)GalNAc
How it was run: as §1

[20] = target: Fuc(a1-2)[Gal(a1-3)]Gal(b1-3)GalNAc(b1-3)Gal(a1-4)Gal(b1-4)Glc
How it was run: as §1

[21] = target: Fuc(a1-2)[Gal(a1-3)]Gal(b1-3)GlcNAc
How it was run: as §1

[22] = target: Fuc(a1-2)[Gal(a1-3)]Gal(b1-3)GlcNAc(b1-2)Man(a1-3)[Fuc(a1-2)[Gal(a1-3)]Gal(b1-3)GlcNAc(b1-2)Man(a1-6)]Man(b1-4)GlcNAc(b1-4)GlcNAc
How it was run: as §1

[23] = target: Fuc(a1-2)[Gal(a1-3)]Gal(b1-3)GlcNAc(b1-2)Man(a1-3)[Fuc(a1-2)[Gal(a1-3)]Gal(b1-3)GlcNAc(b1-2)Man(a1-6)]Man(b1-4)GlcNAc(b1-4)[Fuc(a1-6)]GlcNAc
How it was run: as §1

[24] = target: Fuc(a1-2)[Gal(a1-3)]Gal(b1-3)GlcNAc(b1-3)GalNAc
How it was run: as §1

[25] = target: Fuc(a1-2)[Gal(a1-3)]Gal(b1-3)GlcNAc(b1-6)GalNAc
How it was run: as §1

[26] = target: Fuc(a1-2)[Gal(a1-3)]Gal(b1-4)Glc
How it was run: as §1

[27] = target: Fuc(a1-2)[Gal(a1-3)]Gal(b1-4)GlcNAc
How it was run: as §1

[28] = target: Fuc(a1-2)[Gal(a1-3)]Gal(b1-4)GlcNAc(b1-2)Man
How it was run: as §1

[29] = target: Fuc(a1-2)[Gal(a1-3)]Gal(b1-4)GlcNAc(b1-2)Man(a1-3)[Fuc(a1-2)[Gal(a1-3)]Gal(b1-4)GlcNAc(b1-2)Man(a1-6)]Man(b1-4)GlcNAc(b1-4)GlcNAc
How it was run: as §1

[30] = target: Fuc(a1-2)[Gal(a1-3)]Gal(b1-4)GlcNAc(b1-2)Man(a1-3)[Fuc(a1-2)[Gal(a1-3)]Gal(b1-4)GlcNAc(b1-2)Man(a1-6)]Man(b1-4)GlcNAc(b1-4)[Fuc(a1-6)]GlcNAc
How it was run: as §1

[31] = target: Fuc(a1-2)[Gal(a1-3)]Gal(b1-4)GlcNAc(b1-3)GalNAc
How it was run: as §1

[32] = target: Fuc(a1-2)[Gal(a1-3)]Gal(b1-4)GlcNAc(b1-3)[Fuc(a1-2)[Gal(a1-3)]Gal(b1-4)GlcNAc(b1-6)]GalNAc
How it was run: as §1

[33] = target: Fuc(a1-2)[Gal(a1-3)]Gal(b1-4)GlcNAc(b1-6)GalNAc
How it was run: as §1

[34] = target: Fuc(a1-2)[Gal(a1-3)]Gal(b1-4)[Fuc(a1-3)]Glc
How it was run: as §1

[35] = target: Fuc(a1-2)[Gal(a1-3)]Gal(b1-4)[Fuc(a1-3)]GlcNAc
How it was run: as §1

[36] = target: Fuc(a1-2)[Gal(a1-3)]Gal(b1-4)[Fuc(a1-3)]GlcNAc(b1-3)GalNAc
How it was run: as §1

[37] = target: Fuc(a1-2)[Gal(a1-4)]Gal(b1-4)GlcNAc
How it was run: as §1

[38] = target: Fuc(a1-2)[GalNAc(a1-3)]Gal
How it was run: as §1

[39] = target: Fuc(a1-2)[GalNAc(a1-3)]Gal(b1-3)GalNAc(a1-3)[Fuc(a1-2)]Gal(b1-4)GlcNAc
How it was run: as §1

[40] = target: Fuc(a1-2)[GalNAc(a1-3)]Gal(b1-3)GalNAc(b1-3)Gal(a1-4)Gal(b1-4)Glc
How it was run: as §1

[41] = target: Fuc(a1-2)[GalNAc(a1-3)]Gal(b1-3)GlcNAc
How it was run: as §1

[42] = target: Fuc(a1-2)[GalNAc(a1-3)]Gal(b1-3)GlcNAc(b1-2)Man(a1-3)[Fuc(a1-2)[GalNAc(a1-3)]Gal(b1-3)GlcNAc(b1-2)Man(a1-6)]Man(b1-4)GlcNAc(b1-4)GlcNAc
How it was run: as §1

[43] = target: Fuc(a1-2)[GalNAc(a1-3)]Gal(b1-3)GlcNAc(b1-2)Man(a1-3)[Fuc(a1-2)[GalNAc(a1-3)]Gal(b1-3)GlcNAc(b1-2)Man(a1-6)]Man(b1-4)GlcNAc(b1-4)[Fuc(a1-6)]GlcNAc
How it was run: as §1

B1: VLRB.aGPA.23-GCN4-biotin (Petromyzon marinus) (protein)
chain: ACPSQCSCSGTEVNCAGKSLASVPAGIPTTTRVLYLNSNQITKLEPGVFDRLANLRELHLWGNQLVSLPPGVFDNLANLEKLWLNSNQLTSLPAGLFDRLVNLEHLGLCCMKLTELPSGAFDKLTRLKQLGLDQNQLKSIPDGAFARLPSLTHVWLHTNPWDCQCTDILYLSGWVAQHSSIVGEGWPWRHSPDSAKCSGTNTPVRAVTEASTSPSKCP
glycan array binding signal (z-score) [1]: -0.051 | glycan array binding signal (z-score) [2]: -0.076 | glycan array binding signal (z-score) [3]: -0.08 | glycan array binding signal (z-score) [4]: -0.08 | glycan array binding signal (z-score) [5]: -0.076 | glycan array binding signal (z-score) [6]: -0.084 | glycan array binding signal (z-score) [7]: -0.082 | glycan array binding signal (z-score) [8]: -0.077 | glycan array binding signal (z-score) [9]: -0.064 | glycan array binding signal (z-score) [10]: -0.079 | glycan array binding signal (z-score) [11]: -0.086 | glycan array binding signal (z-score) [12]: -0.074 | glycan array binding signal (z-score) [13]: -0.064 | glycan array binding signal (z-score) [14]: -0.074 | glycan array binding signal (z-score) [15]: -0.079 | glycan array binding signal (z-score) [16]: -0.079 | glycan array binding signal (z-score) [17]: -0.055 | glycan array binding signal (z-score) (Fuc(a1-2)Gal6S(b1-4)Glc): -0.078 | glycan array binding signal (z-score) [18]: -0.079 | glycan array binding signal (z-score) (Fuc(a1-2)[Gal(a1-3)]Gal): -0.071 | glycan array binding signal (z-score) [19]: -0.073 | glycan array binding signal (z-score) [20]: -0.085 | glycan array binding signal (z-score) [21]: -0.055 | glycan array binding signal (z-score) [22]: -0.079 | glycan array binding signal (z-score) [23]: -0.07 | glycan array binding signal (z-score) [24]: -0.083 | glycan array binding signal (z-score) [25]: -0.079 | glycan array binding signal (z-score) [26]: -0.058 | glycan array binding signal (z-score) [27]: -0.084 | glycan array binding signal (z-score) [28]: -0.082 | glycan array binding signal (z-score) [29]: -0.073 | glycan array binding signal (z-score) [30]: -0.074 | glycan array binding signal (z-score) [31]: -0.085 | glycan array binding signal (z-score) [32]: -0.069 | glycan array binding signal (z-score) [33]: -0.08 | glycan array binding signal (z-score) [34]: -0.087 | glycan array binding signal (z-score) [35]: -0.073 | glycan array binding signal (z-score) [36]: -0.07 | glycan array binding signal (z-score) [37]: -0.066 | glycan array binding signal (z-score) [38]: -0.078 | glycan array binding signal (z-score) [39]: -0.079 | glycan array binding signal (z-score) [40]: -0.076 | glycan array binding signal (z-score) [41]: -0.074 | glycan array binding signal (z-score) [42]: -0.082 | glycan array binding signal (z-score) [43]: -0.077
